Measured values as given in PubChem BioAssay AID686979 (National Center for Advancing Translational Sciences (NCATS), 2013).
Among all 420,000 compounds or so, about 50,000 (12%) were called active. Inconclusive means that the source gave no clear call. Such entries were picked first, then a sample of the others. Calls follow the shape of the dose curve; as a rule, active = well fitted inhibition curve with a large enough effect; inconclusive = small, poorly fitted or top-dose-only effect; inactive = flat fitted curve, though single readings scatter. Potencies of inconclusive entries are left out as doubtful fits.

Assay: qHTS for Inhibitors of human tyrosyl-DNA phosphodiesterase 1 (TDP1): qHTS in cells in presence of CPT; also: nearly all actives have a fitted effect of over 55% in size
Settings: chicken DT40 Tdp1-/-;hTDP1 cells + 20 nM CPT, ATP luminescence, 48 h; activity change, negative = growth inhibition: at 46.2 µM (top of the series)
Summary of the method: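 Chicken DT40 Tdp1-/- cells complemented with human TDP1, 400 cells/well, exposed to compounds plus 20 nM camptothecin for at least 48 h at 37 C; viability read as ATP content by CellTiter-Glo luminescence.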
% is scaled to controls: 0 for no effect and ±100 for the full control effect; potency is read from the fitted curve at half-maximal effect; tags tell the direction and shape of the fitted curve.

Structure (SMILES) | activity change, negative = growth inhibition | Potency
CC(C)NC(=O)C1(C)CN(S(C)(=O)=O)CC(=O)N1CCc1ccccc1 (stereo not given) | inactive: 4.7% | –
CCOc1c(CNCCNC(=O)c2nonc2N)cccc1OC | – | inconclusive [inhibitor, single point]
CCN(C(=O)COC(=O)CCCc1c[nH]c2ccccc12)c1c(N)n(Cc2ccccc2)c(=O)[nH]c1=O | – | inconclusive [inhibitor, single point]
CC(=O)Nc1cccc(-c2ccnc3c2CC(C)(C(=O)NCc2ccc(N(C)C)cc2)O3)c1 (stereo not given) | – | active: 3.26 µM
Cc1ccc(CN(Cc2ccco2)c2cnc(S(C)(=O)=O)nc2C(=O)Nc2ccc(Br)cc2)o1 | – | active: 18.4 µM
O=c1[nH]c(C2CCN(S(=O)(=O)/C=C/c3ccccc3)CC2)nc2c1nnn2Cc1ccccc1 | – | inconclusive [inhibitor, single point]
CC(C)Cn1c(=O)c2ccccc2n2c(-c3ccc(Br)cc3)nnc12 | – | inconclusive [inhibitor, single point]
CN(C)CCNC(=O)c1cc2c(s1)-c1ccc(Cl)cc1SC2 | – | active: 2.59 µM
COc1ccc(CCN(C)C(=O)c2cc(S(=O)(=O)N3CCCCC3)ccc2Cl)cc1OC | – | inconclusive [inhibitor, single point]
COc1ccc(OC)c(CCNC(=O)CCn2c(=O)c3cccn3c3cccnc32)c1 | – | inconclusive [inhibitor, single point]
COc1ccc(CC(=O)N2CCCC(CNC(=O)c3ccccc3Cl)C2)cc1 (stereo not given) | inactive: -15.5% | –
CN(C(=O)CSc1nc2ccc(Br)cc2c(=O)n1Cc1ccco1)C1CCS(=O)(=O)C1 (stereo not given) | – | inconclusive [inhibitor, single point]
COc1ccc(N2CCN(C(=O)COC(=O)c3c(-c4ccccc4)noc3C)CC2)cc1 | – | inconclusive [inhibitor, single point]
CC(C)Nc1nc(Cl)nc(N(C#N)CN2C(=O)c3ccccc3S2(=O)=O)n1 | – | active: 25.9 µM
Cc1ccccc1NC(=O)Cn1c(=O)n(Cc2ccc3c(c2)OCO3)c(=O)c2oc3ccccc3c21 | – | active: 4.11 µM
O=C(NC1CC1)c1cccc(NC(=O)C2CC2)c1 | inactive: -3.03% | –
COc1cccc(-c2nnc(NC(=O)c3ccc(S(=O)(=O)N4CCOCC4)cc3)o2)c1 | – | active: 23.1 µM
c1nc(N2CCNCC2)c2cc(-c3ccc4c(c3)OCO4)ccc2n1 | – | inconclusive [inhibitor, single point]
CC1=CN2C(=NC(=O)CC2(C)C(=O)N(CC(=O)NC2CCCC2)Cc2ccc(Cl)cc2)C=C1 (stereo not given) | inactive: 0.497% | –
CSc1ccc(Cn2c(C)c(C(=O)NCc3cccs3)sc2=O)cc1 | – | inconclusive [inhibitor, single point]
Cn1nc(-c2ccc(Cl)cc2)c2cc(C(=O)NCC3CCCO3)sc21 (stereo not given) | – | inconclusive [inhibitor, single point]
O=C(NN=Cc1ccccc1Cl)c1ccc([N+](=O)[O-])cc1 | inactive: 6.27% | –

Structure (SMILES) | activity change, negative = growth inhibition | Potency
CC(CCc1ccccc1)NC(=O)CCN1N=C(c2ccccc2)CCC1=O (stereo not given) | inactive: 0.586% | –
O=C(c1ccccc1)N1CCc2cc(CNS(=O)(=O)c3ccccc3Cl)ccc21 | – | active: 1.3 µM
Cc1cn2c(-c3ccc(Cl)cc3)nnc2s1 | – | inconclusive [inhibitor, single point]
Cc1ccc(-n2sc3ccccc3c2=O)cc1S(=O)(=O)N1CCCCC1 | – | active: 2.31 µM
CCS(=O)(=O)Nc1ccc(C2=NN(C(=O)c3ccco3)C(c3cccc(F)c3)C2)cc1 (stereo not given) | – | inconclusive [inhibitor, single point]
CCOC(=O)c1[nH]c(C)c(C(=O)OCC(=O)N(Cc2ccccc2)C(C)C)c1C | – | inconclusive [inhibitor, single point]
Cc1cccc(S(=O)C(c2ccccc2)c2ccccc2)c1 (stereo not given) | – | inconclusive [inhibitor, single point]
Oc1ccccc1/C=N/n1c(-c2cccs2)n[nH]c1=S | inactive: -9.02% | –
Cc1cccc(N(CC(=O)NC(C)c2ccccc2)S(=O)(=O)c2ccccc2)c1C (stereo not given) | – | inconclusive [inhibitor, single point]
CCN(CC)CCN(Cc1cc2cc3c(cc2[nH]c1=O)OCCO3)C(=S)NCCOC | – | inconclusive [inhibitor, single point]
CCOC(=O)NC(=S)Nc1ccc(C(C)(C)C)cc1Br | inactive: -10.3% | –
CCCC(=O)Nc1ccc(NC(=O)Cc2ccccc2)cn1 | inactive: -4.31% | –
CCCCc1nc(Cl)c(CO)n1Cc1ccc(-c2ccccc2-c2nn[nH]n2)cc1 | – | inconclusive [inhibitor, single point]
CNc1ccc(/C=C2\C=Cc3ccccc32)cc1Br | – | inconclusive [inhibitor, single point]
CCN(CC)C(=O)CN(c1cccc([N+](=O)[O-])c1)S(=O)(=O)c1ccccc1 | – | inconclusive [inhibitor, single point]
CC(C)Cn1c(=O)c2sccc2n2c(CCCC(=O)Nc3ccc(Cl)cc3)nnc12 | – | inconclusive [inhibitor, single point]
COc1ccc(-n2ccnc2SCC(=O)NC2CCCC2)c(OC)c1 | – | inconclusive [inhibitor, full curve]
CS(=O)(=O)c1ncc(N(Cc2ccccc2)Cc2ccco2)c(C(=O)Nc2cccc(C(F)(F)F)c2)n1 | – | inconclusive [inhibitor, single point]
Cc1nc(N2CCN(c3ccccn3)CC2)c2c(C)c(C(=O)N3CCN(c4ccc(F)cc4)CC3)sc2n1 | – | inconclusive [inhibitor, single point]
O=C(NCC(c1ccco1)N1CCN(c2ccc(F)cc2)CC1)C(=O)NC1CC1 (stereo not given) | inactive: -27% | –
O=C(Nc1cccc(-c2nc3ccccc3s2)c1)c1ccc2c(c1)OCO2 | – | inconclusive [inhibitor, single point]
O=C(NCCC1CCCCN1S(=O)(=O)c1cccs1)C(=O)Nc1ccc(F)cc1F (stereo not given) | – | active: 2.91 µM

Structure (SMILES) | activity change, negative = growth inhibition | Potency
CSC1=N/C(=C/c2cccnc2)C(=O)N1Cc1ccc(Cl)cc1 | – | inconclusive [inhibitor, single point]
O=C(NCCc1ccc(Cl)cc1)c1ccc2nc(Cc3ccccc3)oc2c1 | – | inconclusive [inhibitor, single point]
CCOC(=O)C1(CC2CCCCO2)CCN(S(=O)(=O)c2ccccc2)CC1 (stereo not given) | – | inconclusive [inhibitor, single point]
CC(C)c1ccc(CN2CCC3(CCC(CNC(=O)c4ccn(C)n4)O3)CC2)cc1 (stereo not given) | – | inconclusive [inhibitor, single point]
CN(CC(=O)Nc1cccc(F)c1)C(=O)/C=C/c1ccc2ccccc2n1 | – | inconclusive [inhibitor, single point]
COCC1CCCN(Cc2ccc3c(c2)CN(C(=O)c2cc(-c4ccccc4)n[nH]2)CCO3)C1 (stereo not given) | – | inconclusive [inhibitor, single point]
Cc1cc(C)c(NC(=O)CSc2nc(=O)n(Cc3ccco3)c3c2CCC3)c(C)c1 | – | inconclusive [inhibitor, single point]
C=CC1=C(C)C2=CC3=NC(=C(CC(=O)[O-])C4=NC(=C(C)C4=C([O-])[O-])C=c4[n-]c(c(C)c4CC)=CC1=N2)C(CCC(=O)[O-])C3C.[Cu+2].[Na+].[Na+].[Na+] (stereo not given) | – | inconclusive [inhibitor, partial curve, poor fit]
CC(=O)c1ccc(N2CCN(S(=O)(=O)c3cccc(S(=O)(=O)N4CCOCC4)c3)CC2)cc1 | – | inconclusive [inhibitor, single point]
COc1ccc(N2C(=O)CC(N3CCC(O)(c4ccc(Cl)cc4)CC3)C2=O)cc1 (stereo not given) | – | inconclusive [inhibitor, single point]
COc1cccc(-n2nnnc2SCC(=O)N2CCCc3ccccc32)c1 | inactive: -27.7% | –
CCOc1ccc(-c2nonc2NC(=O)c2ccccc2C)cc1 | – | inconclusive [inhibitor, partial curve]
COc1ccc2[nH]c3c(c2c1)CCN1C(=O)C(CC(=O)NCC24CC5CC(CC(C5)C2)C4)C[C@H](C(=O)N2CCOCC2)[C@@]31CCC1CCCC1 (stereo not given in full) | – | inconclusive [inhibitor, single point]
CCOC(=O)c1cn2nc(Oc3ccc(OC)cc3)ccc2n1 | – | inconclusive [inhibitor, partial curve]
CCN1CCN(CCCNC(=O)CNC(=O)c2nn(-c3ccc(OC)cc3)c(=O)c3ccccc23)CC1 | inactive: 2.21% | –
COc1ccc2c(Sc3ccccc3)c(C(=O)NCCN(C)C)[nH]c2c1 | – | inconclusive [inhibitor, single point]
CC(=O)Nc1cccc(-c2cc(-c3c(Cl)cccc3Cl)no2)c1 | – | inconclusive [inhibitor, single point]
Cc1ccc(S(=O)(=O)Cn2nnnc2C(c2ccccn2)N2CCN(c3ccccc3)CC2)cc1 (stereo not given) | – | inconclusive [inhibitor, single point]
COc1ccc(S(=O)(=O)N2CCOCC2)cc1NC(=O)C1CCCN1C(=O)c1cccs1 (stereo not given) | – | active: 0.259 µM
CCc1ccc(CN(Cc2ccco2)C(=O)c2cc(-c3ccc(Cl)cc3)on2)cc1 | – | inconclusive [inhibitor, single point]
CN(C)CCCOc1nc2c(c(=O)n(C)c(=O)n2C)n1C | inactive: 4.01% | –
